Experimental data taken from PubChem BioAssay AID504832 (National Center for Advancing Translational Sciences (NCATS), 2011).
Among all 310,000 compounds or so, about 18,000 (5.8%) were called active. Inconclusive results, whose numbers are uncertain, are shown with a selection of clear calls. Calls follow the shape of the dose curve; as a rule, active = well fitted inhibition curve with a large enough effect; inconclusive = small, poorly fitted or top-dose-only effect, or another doubt; inactive = no such curve, though single readings can be large or run the other way. No potency is given beside an inconclusive call; the fits are too rough.

test: Primary qHTS for delayed death inhibitors of the malarial parasite plastid, 48 hour incubation; conditions: P. falciparum luciferase growth in erythrocytes; series mostly up to 28.7 µM
Summary of the method: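 Cell-based growth assay: transgenic P. falciparum expressing firefly luciferase, cultured in red cells within RPMI 1640 containing 0.5% w/v Albumax, 24 mM bicarbonate and gentamycin. A drop in luciferase activity indicates inhibition.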
% is scaled to controls: 0 for no effect and ±100 for the full control effect; potency is read from the fitted curve at half-maximal effect; tags tell the direction and shape of the fitted curve.

| Compound | Potency | activity change, negative = inhibition |
| --- | --- | --- |
| O=C(N/N=C/c1cc(Br)cc(Br)c1O)c1ccncc1 | active: 9.28 µM |  |
| O=C(Cn1c(=O)cnc2ccccc21)Nc1cccc(S(=O)(=O)N2CCCCC2)c1 | inconclusive [inhibitor, single point] |  |
| COCC(C)NC(=O)CSc1nc2ccccc2c(=O)n1CCc1ccc(S(N)(=O)=O)cc1 (stereo unspecified) | inconclusive [inhibitor, single point] |  |
| CN1CCN(C(=O)C2=C[C@H](c3coc4ccccc4c3=O)C[C@H](OCc3ccc(CO)cc3)O2)CC1 | inconclusive [inhibitor, partial curve] |  |
| O=C(NCC(c1ccco1)N1CCN(c2ccc(F)cc2)CC1)C(=O)NC1CCCCC1 (stereo unspecified) | inactive |  |
| CC(=O)c1c(C)n(C2CCCCC2)c2ccc(O)cc12 | inconclusive [inhibitor, partial curve] |  |
| Cc1ccccc1OCC(=O)Nc1nc(-c2ccncc2)cs1 | inconclusive [inhibitor, single point] |  |
| NC(=O)c1ncc(C(F)(F)F)cc1Oc1cccnc1 | inactive |  |
| CCCNC(=O)/C=C/C(=O)O | inactive |  |
| Cc1cc2nc3c(c(=O)n2[nH]1)CCCC3 | active: 11.7 µM |  |
| CC(C)(C)c1c(Cl)c(O)c(-c2ccccc2)c(=O)n1-c1ccccc1 | inconclusive [inhibitor, partial curve] |  |
| COC(=O)C1=C(c2ccc(OCc3ccccc3)cc2)C[C@@H]2CC[C@H]1N2C(=O)NCc1ccc(N(C)C)cc1 | inconclusive [inhibitor, partial curve] |  |
| Cc1ccc(-n2c(-c3ccc(Cl)cc3)c[n+]3c2CCC3)cc1 | active: 0.262 µM |  |
| Cc1ccc(S(=O)(=O)Oc2ccc(/C=C(/NC(=O)c3ccccc3)C(=O)NC(C)C(=O)O)cc2)cc1 (stereo unspecified) | inactive |  |
| COc1ccc(OC)c(C2=CC(=O)C[C@H](c3ccc4c(c3)OCO4)C2)c1 | inactive |  |
| O=C(NCc1ccccn1)Nc1ccc2c(c1)OCO2 | inactive |  |
| COc1cc(C(=O)NNC(=O)Cc2ccc(S(=O)(=O)N3CCOCC3)s2)cc(OC)c1OC | inconclusive [inhibitor, single point] |  |
| CCn1c(N2CCN(C(=O)Nc3ccc(F)cc3)CC2)nc2ccccc21 | inconclusive [inhibitor, single point] |  |
| Fc1ccccc1CNC(=S)Nc1cccc(C(F)(F)F)c1 | inconclusive [inhibitor, single point] |  |
| CCOC(=O)CSc1nc(C(C)(C)C)nc2ccccc12 | inactive |  |
| CCSC1=C(C#N)C(CC(C)C)C2=C(CCCC2=O)N1 (stereo unspecified) | inconclusive [inhibitor, partial curve, poor fit] |  |
| CCC1(COC(=O)Nc2cccc(Cl)c2)COC1 | inactive |  |
| COc1ccccc1/C=C/C(=O)OCCN1C(=O)c2ccccc2C1=O | inactive |  |
| Cc1ccc(-c2c(C(=O)N/N=C/c3ccsc3)nnn2-c2nonc2N)cc1 | inconclusive [inhibitor, partial curve] |  |

| Compound | Potency | activity change, negative = inhibition |
| --- | --- | --- |
| O=C(CN1C(=O)C(c2ccc(F)cc2)=NC12CCCC2)Nc1ccc(F)cc1 | inactive |  |
| Cc1ccc(S(=O)(=O)c2nc(-c3ccco3)oc2N2CCC(C)CC2)cc1 | inconclusive [inhibitor, partial curve] |  |
| COc1ccc(C(=O)N/N=C(\C)c2cccc(NC(=O)c3ccc(F)cc3)c2)c(OC)c1 | inactive |  |
| CCCCC(=O)Nc1ccccc1N1CCN(c2ccc(F)cc2)CC1 | inconclusive [inhibitor, single point] |  |
| CC(C)(C)c1ccc(C(=O)Nc2cccc3ncccc23)cc1 | inconclusive [inhibitor, single point] |  |
| CCOc1ccc(-c2nc(S(=O)(=O)c3ccccc3)c(N3CCC(C(N)=O)CC3)o2)cc1 | inconclusive [inhibitor, single point] |  |
| Cc1c(-c2nc(N)nc(Nc3ccc(F)cc3)n2)oc2ccccc12 | inconclusive [inhibitor, single point] |  |
| CCOC(=O)N1CCN(c2nc3c(c(=O)[nH]c(=O)n3C)n2Cc2ccccc2Cl)CC1 | inconclusive [inhibitor, single point] |  |
| COc1ccc(S(=O)(=O)N2CCCCCC2)cc1C(=O)N(C)Cc1ccc(F)cc1 | inconclusive [inhibitor, partial curve, poor fit] |  |
| Cn1cccc1/C=N/NC(=O)c1sc2ccccc2c1Cl | inactive |  |
| COc1cc(CNCCc2ccccc2)cc(Br)c1OCC(=O)Nc1ccccc1C |  | inactive: -21% [at 5.75 µM] |
| COc1ccc(NC(=O)N(Cc2cccs2)Cc2cc3cc4c(cc3[nH]c2=O)OCO4)cc1 | inconclusive [inhibitor, single point] |  |
| O=c1c2oc3ccccc3c2ncn1Cc1ccc(F)cc1 | inconclusive [inhibitor, single point] |  |
| Cc1cc(NC(=O)CSc2nnc(-c3ccncc3)n2N)ccc1Br | inactive |  |
| COC(=O)[C@@H]1C[C@H]2CC[C@H](O)C[C@H]2N1Cc1ccccc1OC(=O)c1cccs1 | active: 9.28 µM |  |
| O=C(COC(=O)c1cccnc1Cl)c1ccc(Cl)cc1Cl | inactive |  |
| C=CCC(c1ccccc1F)N(CCN1CCOCC1)C(=O)Nc1cccc(Cl)c1 (stereo unspecified) | inconclusive [inhibitor, single point] |  |
| CCN(CC)S(=O)(=O)c1ccc(=O)n(CC(=O)N2CCCc3cc(C)ccc32)c1 | inconclusive [inhibitor, single point] |  |
| CCCN1CCCc2cc(CN)ccc21 | active: 1.65 µM |  |
| O=C(Nc1ccc(N2CCCC2)c(Cl)c1)c1ccc([N+](=O)[O-])cc1 | inconclusive [inhibitor, single point] |  |
| CCc1ccc(C2=NN(c3ccc(S(N)(=O)=O)cc3)C(c3ccc(F)cc3)C2)cc1 (stereo unspecified) | inconclusive [inhibitor, single point] |  |
| COc1ccccc1-n1c(SCC(=O)O)nc2c(sc(=S)n2-c2ccc(C)c(C)c2)c1=O | inactive |  |
| CCOC(=O)N1CCN(CCC(=O)Nc2cccc(Cl)c2C)CC1 | inconclusive [inhibitor, single point] |  |
| COc1cccc(-c2ncc3ccccc3c2COC(=O)c2ccc(F)cc2)c1 | inconclusive [inhibitor, partial curve, poor fit] |  |

| Compound | Potency | activity change, negative = inhibition |
| --- | --- | --- |
| Cc1ccc(C)c(S(=O)(=O)Nc2cc3c4c(c2)CCC(=O)N4CCC3)c1 | inconclusive [inhibitor, single point] |  |
| O=C(/C=C/Sc1ncn[nH]1)c1ccc(Cl)cc1 | inconclusive [inhibitor, single point] |  |
| CCOc1ccc(S(=O)(=O)N2CCC(C(=O)NC3CC3)CC2)cc1Cl | inconclusive [inhibitor, partial curve, poor fit] |  |
| CCC1(c2ccc(F)cc2)NC(=O)N(CC(=O)N2CCc3ccccc32)C1=O (stereo unspecified) | active: 11.7 µM |  |
| COC(=O)C(CCSC)NC(=O)c1cn(-c2ccc(OC)cc2)c(=O)c2ccccc12 (stereo unspecified) | inconclusive [inhibitor, full curve, poor fit] |  |
| COc1cc2ncnc(NCCCN3CCOCC3)c2cc1OC | inconclusive [inhibitor, single point] |  |
| Cc1cc(C(=O)COC(=O)Cc2ccc(Br)cc2)c(C)n1C | inactive |  |
| O=C(Nc1ccncc1)c1cc(-c2cccc(Br)c2)nc2ccccc12 | active: 0.928 µM |  |
| O=C(Nc1ccc2oc(-c3ccccc3)nc2c1)C1CCCO1 (stereo unspecified) | inactive |  |
| Cc1ccc(/C=N/NC(=O)CSc2nc3ccccc3[nH]2)o1 | inactive |  |
| N#Cc1ccc(-c2cccnc2)nc1SCc1ccc(Cl)c(Cl)c1 | active: 9.28 µM |  |
| CCN(CC(=O)Nc1c(F)cccc1F)C(=O)c1csc2c1CCCC2 | inactive |  |
| COc1ccc([C@@H]2[C@@H]3C(=O)N(C(C)(C)C)C(=O)[C@@H]3[C@]3(Cc4ccccc4)C(=O)N(c4cccc(C)c4)C(=O)N23)cc1 | inconclusive [inhibitor, single point] |  |
| CCC(C)NC(=O)C(Cc1ccccc1)NS(=O)(=O)c1ccc2c(c1)CCC(=O)N2 (stereo unspecified) | inconclusive [inhibitor, partial curve, poor fit] |  |
| COC(=O)c1ccc(C2C(Oc3ccccc3C)C(=O)N2CCc2ccc(OC)c(OC)c2)cc1 (stereo unspecified) | inconclusive [inhibitor, full curve, poor fit] |  |
| O=C(Nc1cccnc1)C1COc2ccccc2O1 (stereo unspecified) | inactive |  |
| Cc1ccc(S(=O)(=O)NNC(=S)NC(=O)c2ccc([N+](=O)[O-])cc2)cc1 | inactive |  |
| CCC/C=C(\CCC)C(NS(=O)(=O)c1cccc2cccnc12)c1ccc(C(=O)OC)cc1 (stereo unspecified) | inconclusive [inhibitor, full curve] |  |
| O=C1CCCN1CCCNc1ncnc2c1cnn2-c1ccc(Cl)cc1 | inactive |  |
| N#C/C(=C\C=C\c1ccccc1[N+](=O)[O-])C(=O)NC1CCCCC1 | inconclusive [inhibitor, partial curve, poor fit] |  |
| C[C@@H]1CN(c2c(F)c(F)c3c(=O)c(C(=O)O)cn(C4CC4)c3c2F)C[C@H](C)N1 | inconclusive [inhibitor, single point] |  |
| O=C(c1ccc(F)cc1)N1CCCC(c2ccccc2)C1 (stereo unspecified) | inactive |  |
| CCOP(=O)(OCC)c1cccc(P(=O)(c2ccccc2)c2ccccc2)c1O | inconclusive [inhibitor, full curve, poor fit] |  |
